According to PubChem BioAssay AID504832 (National Center for Advancing Translational Sciences (NCATS), 2011):
Among all 310,000 compounds or so, about 18,000 (5.8%) were called active. The inconclusive results got no clear call from the source; some entries with a clear call stand among them for comparison. Calls come from the whole dose curve; as a rule, active = well fitted inhibition curve with a large enough effect; inconclusive = small, poorly fitted or top-dose-only effect, or another doubt; inactive = no such curve, though single readings can be large or run the other way. Potencies of inconclusive entries are left out as doubtful fits.

Assay: Primary qHTS for delayed death inhibitors of the malarial parasite plastid, 48 hour incubation
Details: P. falciparum luciferase growth in erythrocytes; series mostly up to 28.7 µM; activity change, negative = inhibition: at the top concentration
How it was run: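 Firefly luciferase activity from engineered P. falciparum reports growth; inhibitors lower the luminescent signal. Cultures contained 2% hematocrit erythrocytes at 0.1% final parasitemia.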
% is set by controls: 0 for no effect and ±100 for the full control effect; potency is the fitted concentration of half-maximal effect; tags give direction and shape of the fitted curve.

Structure (SMILES) | activity change, negative = inhibition | Potency
CCCCOc1ccc(CSC(CC(=O)O)C(=O)O)cc1 (stereo not given) | inactive: -20.6% | 
CCOC(=O)c1c(S(=O)(=O)NCC(=O)Nc2ccc(OC)cc2)c(C)n(C)c1C | inactive: 15.3% | 
CCn1cc([N+](=O)[O-])c(C(=O)N2N=C(c3ccc4ccccc4c3)CC2c2cc(Br)ccc2O)n1 (stereo not given) |  | active: 3.29 µM
Cc1onc(-c2ccccc2)c1C(=O)Nc1ccc(S(=O)(=O)Nc2nccs2)cc1 |  | inconclusive [inhibitor, partial curve]
CCOCCCNC(=O)c1cc2c(=O)[nH]c3ccccc3c2s1 |  | inconclusive [inhibitor, partial curve]
O=C(COc1ccc(F)c(Cl)c1)c1ccc[nH]1 | inactive: 19.7% | 
O=C(Nc1ccc(N2CCN(C(=O)c3ccco3)CC2)cc1)c1cccs1 |  | inconclusive [inhibitor, single point]
CN(Cc1ccccc1F)C(=O)CNC(=O)Cc1cccc2ccccc12 |  | inconclusive [inhibitor, partial curve, poor fit]
COc1ccc(NC(C)C(=O)N/N=C/c2ccc([N+](=O)[O-])s2)cc1 (stereo not given) |  | inconclusive [inhibitor, partial curve]
CCOC(=O)c1ccc(-c2c(-c3ccc4c(c3)OCO4)noc2-c2ccsc2)cc1F |  | inconclusive [inhibitor, partial curve, poor fit]
CC(C)CCNC(=O)c1sc2ccc(S(=O)(=O)N3CCCCC3)cc2c1N |  | active: 13.1 µM
CNC(=O)c1ccc(-c2ccc(OC)cc2)s1 | inactive: 8.85% | 
O=C(COC(=O)c1ccccn1)NCCCc1ccccc1 | inactive: 40% | 
CC(=O)NC(Cc1ccccc1C)C(=O)NC1CCN(c2nnnn2-c2ccccc2)CC1 (stereo not given) |  | inconclusive [inhibitor, partial curve, poor fit]
Nc1ncnc2c1ncn2[C@@H]1O[C@H](COS(=O)(=O)O)[C@@H](O)[C@H]1O |  | active: 13.1 µM
Cn1ccnc1SCC(=O)Nc1ccc(Oc2ccccc2)cc1 | inactive: 24.9% | 
Cc1ccc(OCC(=O)NNC(=O)c2ccccc2OCc2c(C)noc2C)cc1 | inactive: 0.0777% | 
COc1ccc2c(=O)c(C(=O)NCc3ccccc3)c[nH]c2c1 |  | inconclusive [inhibitor, single point]
O=C(CCC(=O)c1ccc(F)cc1)NN1C(=O)NC2(CCCCC2)C1=O |  | inconclusive [inhibitor, single point]
COc1cccc(CN2CCN(C(=O)Nc3ccc([N+](=O)[O-])cc3)CC2)c1 |  | inconclusive [inhibitor, partial curve]
CCOC(=O)/C(C#N)=C1/C=C(C)NC(c2ccccc2O)=N1 |  | inconclusive [inhibitor, single point]
COc1nc(C)ccc1-c1noc(-c2cccs2)n1 | inactive: 52.4% | 
CC1CCN(S(=O)(=O)N2CCC(C(=O)NCc3cccnc3)CC2)CC1 |  | inconclusive [inhibitor, partial curve]

Structure (SMILES) | activity change, negative = inhibition | Potency
COc1ccc(S(=O)(=O)N2CCCC(C(=O)NCCC(C)C)C2)cc1 (stereo not given) |  | inconclusive [inhibitor, single point]
O=C(O)c1ccccc1NC(=O)C(Cc1ccccc1)N1C(=O)c2ccccc2C1=O (stereo not given) | inactive: 13.3% | 
COc1ccc(COC(=O)c2cccc(S(=O)(=O)N3CCCC3)c2)cc1F |  | inconclusive [inhibitor, single point]
CCCNC(=O)C(Cc1ccc(Cl)cc1)NC(=O)c1ccc(C#N)cc1 (stereo not given) |  | inconclusive [inhibitor, single point]
Cc1ccc(-c2csc(N(CCCN(C)C)C(=O)c3ccco3)n2)cc1 | inactive: -21.6% | 
O=[N+]([O-])c1ccc2c(c1)nc1n2CCN(c2ccccc2)C1 |  | inconclusive [inhibitor, single point]
Cc1ccc(C(=O)N2CCC3(CC2)Oc2ccc(F)cc2C(=O)C32CC(c3ccccc3)=NO2)s1 (stereo not given) |  | inconclusive [inhibitor, single point]
Cc1ccc(C(=O)N(c2ccccc2)C2CC(C)N(C(=O)c3ccco3)c3ccccc32)cc1 (stereo not given) |  | active: 10.4 µM
O=C(Nn1c(-c2ccccc2)nc2ccccc2c1=O)c1cccs1 | inactive: 13.8% | 
C[C@@]12CCC[C@@](C)(C(=O)O)C1CC[C@@]13C[C@@H](NCc4ccccc4)[C@@](C)(CCC12)C3 (stereo not given in full) |  | inconclusive [inhibitor, single point]
CCCCc1nc2cc(C(=O)N3CCCC(OCCC)C3)ccc2o1 (stereo not given) | inactive: 7.21% | 
c1ccc2c(CCNC3=NCCC3)c[nH]c2c1 |  | inconclusive [inhibitor, single point]
COCCN1C(=O)C(=O)/C(=C(/O)c2ccc(S(=O)(=O)N3CCOCC3)cc2)C1c1cccc(Cl)c1 (stereo not given) |  | inconclusive [inhibitor, partial curve, poor fit]
Cc1nc2ccc([N+](=O)[O-])cc2c(=O)n1Cc1cccc(F)c1 |  | inconclusive [inhibitor, single point]
COc1ccc(NC(=S)NCc2ccc(Cl)cc2)c(OC)c1 |  | inconclusive [inhibitor, partial curve, poor fit]
CCOC(=O)C1=C(CN2CCSCC2)NC(=O)NC1c1cc(C)ccc1C (stereo not given) |  | active: 11.7 µM
COc1ccccc1CNC(=O)COc1ccc(S(=O)(=O)N2CCCC2)cc1 |  | active: 13.1 µM
CC1CN(S(=O)(=O)c2cccc(C(=O)Nc3ccc4c(c3)CCC4)c2)CC(C)O1 (stereo not given) | inactive: -12% | 
CC(=O)c1c(C)[nH]c(C(=O)CSc2nc3ccccc3c(=O)n2CCCN2CCOCC2)c1C |  | inconclusive [inhibitor, single point]
Cc1cc(C)nc(N(C#N)Cc2cccc3ccccc23)n1 |  | inconclusive [inhibitor, single point]
Cc1ccc(C(=O)Nc2ncc3c(n2)CC(c2ccco2)CC3=O)cc1 (stereo not given) | inactive: 55.1% | 
CCN(CC)CCN(Cc1cc2cc(C)ccc2[nH]c1=O)C(=O)Nc1ccccc1OC |  | inconclusive [inhibitor, single point]
